# Measurements published in the supplement of paper PMC11417369.
# ± gives the standard deviation of the averaged measurements. This is one part of the list.
# System: PfAP2-I AP2 domain 3 (GST-tagged)
# Experiment: gcPBM binding intensity (ln(normalized median fluorescence intensity)); higher = stronger DNA binding
# In short: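 An Agilent 4 × 180k array carrying primer-extended double-stranded 36-bp intergenic genomic probes and negative controls received GST-tagged P. falciparum DNA-binding domains expressed in E. coli, about 25 μg on average, for 1 h. The binding buffer contained 1× PBS, 1% milk, 0.2 mg/ml BSA, 0.5% salmon testes DNA and 0.03% Triton X-100. Binding intensity is the top Masliner-normalised natural-log median intensity across replicate spots of either probe orientation, read after Alexa488 anti-GST antibody staining and a 488 nm scan.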
row,Sequence,gcPBM binding intensity (ln)
1,TTTTTTTTTTTTTTTTTTTGTCTTATATATTACGGA [CACACA_negctrl_site322],8.04 ± 0.71
2,TATATATTATCAAGTGGACACACGAAAAAAAGGAAA [CACACA_site3741],8.03 ± 0.6
3,TAAAGATTGTTCAGTGCATGTTGGCCTGTAAATGGA [TGCATGCA_site315],8.47 ± 0.36
4,TTTTTCATATTATACTTTTATATACATATATAAAAA [XGTACX_negctrl_site281],7.93 ± 0.64
5,ATAAACTGAGTGGTTACACACAAAACCAATAACTTT [CACACA_site7601],7.62 ± 0.67
6,ATATAGACACACACATGTACATATGCCAACGTGATA [XGTACX_site3828],7.94 ± 0.49
7,ACTATATAATATAATATATTATAATATATTATATTA [GTGCAC_negctrl_site140],7.63 ± 0.32
8,TTCTTAAAATATGAAAGTACATAGGCATTATATATT [XGTACX_site8400],7.73 ± 0.49
9,TATGCAAGGAACCACACACACACACCGAAATGTATA [CACACA_site4573],7.79 ± 0.52
10,TTTTTTATTAGTATCTGTACACATTGGTATTTGTAT [XGTACX_site6682],7.96 ± 0.52
11,AATAAATAAATATATATATATATATAATATCATAAA [CACACA_negctrl_site337],7.73 ± 0.27
12,TATATATATATATATTGTACTTATGTTTATATTCAT [XGTACX_site6258],9.34 ± 0.41
13,TTCTTTAAAATATTATGTACACATTGCGAACAGTTT [XGTACX_site5418],7.87 ± 0.57
14,AGTTTATTTATATACACACACATATAAATATTATAG [CACACA_site6522],7.74 ± 0.52
15,ATATATATTTATGTATCACACACAAAAAAAAAAAAT [CACACA_site7973],7.69 ± 0.54
16,TCAAGAATTATATAAACACACATACATACACCCATA [CACACA_site5126],8.1 ± 0.16
17,ATATTGATGTATTGTTTTTTTTTTTTCTTTTTTTTT [CACACA_negctrl_site1238],7.47 ± 0.58
18,CCATGCATACATTCTTGTACACATTTCTATTATGAG [XGTACX_site39],8.16 ± 0.68
19,GAATTCAACAAAAAAAGTACTCTACATAAAATAATG [XGTACX_site175],7.83 ± 0.23
20,TTATAAAAGGACTTCTGTACGAATTTTTTTTAATAA [XGTACX_site1411],7.41 ± 0.12
21,GAACGAAACTTTCTTACACACATTGAAATTTTTTTC [CACACA_site1779],7.94 ± 0.42
22,TACTCACAATGGGGTCTACAAAAAAAAAAAAATAAA [XGTACX_negctrl_site229],7.73 ± 0.042
23,ATGATCATAAAACACACACACAAAAAAAAAAAAAAA [CACACA_site1805],8 ± 0.52

row,Sequence,gcPBM binding intensity (ln)
1,ATTAATTTTATATATGCACACAAAATATGTTCATAT [CACACA_site9350],9.13 ± 0.099
2,TTATAATAAACCTATACACACATAAATAAATAAATA [CACACA_site2581],7.83 ± 0.63
3,TATGTATATATTTGTGCACACCAAAGTTTGATTTTA [CACACA_site1861],10.71 ± 0.014
4,AATAATATTTATTTTTGTACATATGTGCATTATAAA [XGTACX_site3682],11 ± 0.98
5,TTCTGGTGTAAATGCACACAGAAGAAGAAAAAAAAA [CACACA_site3685],9.81 ± 0.54
6,TAATTTAATTTTCCAAGAAAAAAAAAAGAAAAAAGA [CACACA_negctrl_site1703],7.59 ± 0.4
7,TAACATCCTAATGTCACACATGTTATAGGTTTAAAT [CACACA_site5649],7.45 ± 0.54
8,AATAGATTTTTATGCGTGCACACATTTAACAAAAAA,10.38 ± 0.035
9,GTGCTAGTATTTAATACACACAATTGAAGTTCCTGA [CACACA_site1452],8.21 ± 0.33
10,TACACCAGTTGTGGGAGTACACAAAAAAAGGGAAAA [XGTACX_site6047],8.24 ± 0.25
11,TTCTGTTCAAAATATGAACACACACCGATATATATA [CACACA_site8637],8.14 ± 0.79
12,AAAAATATAAAGAAATGTACTTATAAAAATCCCTAC [XGTACX_site3824],7.81 ± 0.41
13,TGCAGTCTGGAGAAAAGTACACAGTATCTGGTAGCT [XGTACX_site2013],7.71 ± 0.69
14,AATATCATAAAATAAAGTACAAATATATATTGAAAA [XGTACX_site8813],7.79 ± 0.57
15,CTTTATCTTTTTCATTGTACTTTATTTTAAAATTAA [XGTACX_site4858],8.18 ± 0.57
16,TATTTATGTAGATACACACCCATGTTATATGGAGGT [CACACA_site3461],7.63 ± 0.61
17,TTTCTTTTTTTTTTTATTTACCTGAATTATGTATTA [TGCATGCA_negctrl_site345],7.42 ± 0.57
18,GCTTGTTCAAAAATGAGTACATACAAATAGTTGTAT [XGTACX_site1770],8.13 ± 0.028
19,CTCGTATATATAATACGTACATATTATATATATATA [XGTACX_site1704],9.005 ± 0.064
20,TTTACATACAAATTAACACACATATAGAAAAGAGAA [CACACA_site1889],8.07 ± 0.65
21,TCCTTTCTTTTTTAAACATGCATATGTAATATAAAT [TGCATGCA_site979],7.89 ± 0.6
22,CCTTCATCATATTTAACACACAGAGAAAAAGCGGAT [CACACA_site274],8.23 ± 0.57
